In paper PMC12136788:
The list shows a part of the results.

T1: UNK ZnF1-6 (called full-length) (human, UniProt Q9C0B0 30-357)
T1 sequence: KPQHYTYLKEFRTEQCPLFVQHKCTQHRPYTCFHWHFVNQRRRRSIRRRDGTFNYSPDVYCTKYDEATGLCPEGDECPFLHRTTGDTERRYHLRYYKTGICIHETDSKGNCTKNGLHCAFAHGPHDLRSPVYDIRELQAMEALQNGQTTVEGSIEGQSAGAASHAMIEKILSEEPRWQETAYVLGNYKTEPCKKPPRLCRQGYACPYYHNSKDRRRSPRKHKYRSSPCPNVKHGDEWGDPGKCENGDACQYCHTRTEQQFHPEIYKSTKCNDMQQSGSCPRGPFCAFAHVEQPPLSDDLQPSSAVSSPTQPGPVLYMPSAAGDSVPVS

B1: chr10:119072878:119073036:-|CDS|ENSG00000107581|unk|FALSE|unique (ssRNA)
RNA: GGGAGUUCUACAGUCCGACGAUCCUUUUAACUCCAUGGGUUAAAUUCCUGUGGGAGUCUUACAGGCAGUGUUUGGACCUUCUUAGAAACAAUUCUAGAGUAGAGCGCCUGUACCAUGAUAUUGCCCAGCAAGGUAAGAUGAGACAACAGAGGAUUGAGCAUCA
B2: chr1:71064632:71064733:-|3pUTR|ENSG00000132485|msi1|FALSE|bound_elsewhere (ssRNA)
RNA: GGGAGUUCUACAGUCCGACGAUCGCUAAGACAGGAUUACCUAGGCUUGCCUGAACUUUGGGCAUGGAAGAAAGACUGGAAACUAGUUGGAAACAACAUACUUAUGGAAAAGAAAGUCAGCCUUUUUAUGCUGUUAACAGAUGUCAACAGAGGAUUGAGCAUCA
B3: ENSG00000070961:be:win_1551|CDS|ENSG00000070961|bound_else_gene|NA|bound_elsewhere_windowed (ssRNA)
RNA: GGGAGUUCUACAGUCCGACGAUCAAUUUCUGUGAAUUGUGCUUAUACAUCAAAAAUAUUGCCACCAGAGAAAGAGGGUGGAUUACCUCGUCACGUUGGUAAUAAAACUGAAUGUGCCUUGUUGGGACUUCUUUUGGAUUUAAACAACAGAGGAUUGAGCAUCA
B4: chr19:12791443:12791544:+|5pUTR|ENSG00000171223|unk|total|mutant (ssRNA)
RNA: GGGAGUUCUACAGUCCGACGAUCGGGGGGCGCGGGGGCCCGGCUCCGGCGACGGCCAAUCGGAGCGCACUUCCGUGGCUGACCCGCGCGGUAUAAAGGCGUGUGGCUCAGGCUGAGCGGCUGGGACCUUGAGAGCGGCCAGGCCAACAGAGGAUUGAGCAUCA
B5: chr1:94897714:94897775:-|CDS_3pUTR|ENSG00000117519|msi1_unk|total|mutant (ssRNA)
RNA: GGGAGUUCUACAGUCCGACGAUCGCGAGUACCAGGAUGACUACCCCAGAGAUUACCAAUACCGCGACCAAGGCAUUGAUUAUCCGAUCCACACAGAAGGAGCUCAGUAUUCCGUCCUUUGUUUUUAUUCAGUGAGAACCAAGCCAACAGAGGAUUGAGCAUCA
B6: chr15:40213340:40213445:+|CDS|ENSG00000156970|unk|total|mutant (ssRNA)
RNA: GGGAGUUCUACAGUCCGACGAUCACACAGUGAAUAUAUUACCCAUGAAAUAACAGUGUUGAUUAUUUAUAACCUUUUGACAACCGUGGAGAUGCUACACAAAGCAGAAACCGUCCAUGGUGACUUGAGUCCAAGGUGUCUGAUCAACAGAGGAUUGAGCAUCA
B7: chr13:73693106:73693207:-|3pUTR|ENSG00000118922|msi1|total|mutant (ssRNA)
RNA: GGGAGUUCUACAGUCCGACGAUCCAGAGAACACAGAGAGGGACAAACACAGCCAUGAACCCCCUGGCACCCGUACCAGCACCCCGUUGGCAAGCCGUGGGUGCAUCUCUCAAGUGAAGUGCCGAUUUGUAUUCCGUCCUGCUUCAACAGAGGAUUGAGCAUCA
B8: chr12:285015:285116:-|3pUTR|ENSG00000073614|msi1|FALSE|bound_elsewhere (ssRNA)
RNA: GGGAGUUCUACAGUCCGACGAUCUAACAGGGCAUAUAGGAUGUGGCUUUUGUCCAGCUGAUAGUAGUUAGAGGCUUACAACUUAGGAGCAGCACCAACUGAAGGUGCUAAUUGCUUGGAUCUCCUUCAUUGGGAUAGUUGGAGCAACAGAGGAUUGAGCAUCA
B9: chr15:41480918:41481019:+|3pUTR|ENSG00000137815|msi1|total|mutant (ssRNA)
RNA: GGGAGUUCUACAGUCCGACGAUCCCUCCCCCAGGGCCCCACCCAGUGUGGGCCUGGGCUCUCUUGGGCUUUAUCCAUGUCUUCCGAUUUGUGUUUGCCUUUUGUUUUUUUAACCGCGCAGUUCAUUGGCCACUCUGCACGCAUCAACAGAGGAUUGAGCAUCA
B10: chr11:101473508:101473773:-|CDS|ENSG00000137672|control|control|control (ssRNA)
RNA: GGGAGUUCUACAGUCCGACGAUCUCCUCAAAUAAUAUCUGAAGGUCUUUAUGCAAUUGCUGUAGUUUUAAGUUUCUCUAGGAUAGCUUAUAUUUUACCAGCAAAUGAAAGCUUUGGACCUCUGCAGAUAUCACUUGGAAGAACCAACAGAGGAUUGAGCAUCA
B11: chr7:40094668:40094770:+|CDS|ENSG00000065883|unk|FALSE|unique (ssRNA)
RNA: GGGAGUUCUACAGUCCGACGAUCGGAUAUGGAGACAUUUACCUCAAUGCUGGUCCCAUGUUGUUUAGUGGAGACAAGGACCAUAGAUUUGAAUAUAGCCAUGGUCCUAUUGCAGUCCUGGCAAACAGCAGUGACCCUUCCACGCAACAGAGGAUUGAGCAUCA
B12: chr5:144162273:144162391:-|CDS|ENSG00000145817|unk|FALSE|unique (ssRNA)
RNA: GGGAGUUCUACAGUCCGACGAUCCCCAUAGGCUGGCAAAAUCCAGUUUGGCUAUGUAUACGGGAUCAGUGCAAUUGGAUGUCUAGGAAUGUUUUGUUUAUUAAACUUAAUGAGUAUGACAGGUGUUUCAUUUGGUUGUGUGGCCAACAGAGGAUUGAGCAUCA
B13: chr2:73226876:73226918:+|3pUTR|ENSG00000135632|msi1_unk|total|mutant (ssRNA)
RNA: GGGAGUUCUACAGUCCGACGAUCAUCUUCCGGGUCUCCACAGACUAACAUUGAAGUCUUCCAGAAACCUCGAGGAGCUGGGCCCGAUACUUCGAGAGCCGCCCUGUCUUGUCCCCUCCUACCCCCAGAUCCGCACCACCCCUCCAACAGAGGAUUGAGCAUCA
B14: ENSG00000104142:stop:overlap|stop_codon|ENSG00000104142|stop_codon|NA|stop_codon (ssRNA)
RNA: GGGAGUUCUACAGUCCGACGAUCCUAUCGACCGGCCGUUCAUCGACCCCCAGCGCUACGAGGAGGAGCAGCUCAGUUGGCUGUAGGAGGGUGUCACCUUUGAUGGGGGGUGGGCAAUGGGGAGCAGUGGCUUGAACCCACUUGCAACAGAGGAUUGAGCAUCA
B15: chr7:6690371:6690472:-|3pUTR|ENSG00000164631|msi1|FALSE|bound_elsewhere (ssRNA)
RNA: GGGAGUUCUACAGUCCGACGAUCUGAAAAAAAAAAAAGAAAUAGAAGAUUCCUGCUGUGAAUAAACAUACUUCUUGUGUAAAUAGAAACUGUAAAGUCAUCAGGAUAGCUAGUUAAGUCGGUAACCUUAAACUCAUGUAAGCACAACAGAGGAUUGAGCAUCA
B16: chr9:132670296:132670397:+|5pUTR|ENSG00000125484|msi1|total|mutant (ssRNA)
RNA: GGGAGUUCUACAGUCCGACGAUCCCUCCCCUUUACCGCCCCGUGCGUUUCCUCAGCACUUCCGGAACUAAAGCCUGUCUGGGCCGCUCCCUAACAGGCUCUGGAGCUCAAUCCCUGGGCAGGGAAAAGGGGGUCCUCGGGGCUCAACAGAGGAUUGAGCAUCA
B17: ENSG00000070961:be:win_351|CDS|ENSG00000070961|bound_else_gene|NA|bound_elsewhere_windowed (ssRNA)
RNA: GGGAGUUCUACAGUCCGACGAUCAGCCAUAGUAUCAUUGGGCCUUUCUUUUUAUCAGCCUCCAGAAGGGGAUAAUGCACUUUGUGGAGAAGUUUCUGUUGGGGAGGAAGAAGGUGAAGGUGAAACUGGUUGGAUUGAAGGAGCCAACAGAGGAUUGAGCAUCA
B18: chr16:67395001:67395280:-|CDS|ENSG00000159714|control|control|control (ssRNA)
RNA: GGGAGUUCUACAGUCCGACGAUCCCGGAUCCGACCCCAGGUAGGAGGGACUGUGCUGGGCCUCCGGUCCAGGUGGAGUGGGAUAGAAAGAAGCCUCUACCCUGGCGCUCGCCUCUGCUUCUUUUGGCGAUGUGGGGCCCUCAGCAACAGAGGAUUGAGCAUCA
B19: ENSG00000070961:be:win_801|CDS|ENSG00000070961|bound_else_gene|NA|bound_elsewhere_windowed (ssRNA)
RNA: GGGAGUUCUACAGUCCGACGAUCGGAAGGCUCUGGAAGAAUGGUAGUUACAGCUGUAGGUGUAAAUUCUCAAACUGGAAUUAUCUUUACCUUACUUGGAGCUGGAGGUGAAGAGGAAGAGAAGAAAGAUGAGAAGAAAAAGGACAACAGAGGAUUGAGCAUCA
B20: ENSG00000198589:be:win_5251|CDS|ENSG00000198589|bound_else_gene|NA|bound_elsewhere_windowed (ssRNA)
RNA: GGGAGUUCUACAGUCCGACGAUCGUGGUUUCCUCAGUAGAUUCAGCCCAAGCCUCAGAUAUGGGAGGAGAAUCACCAGGCAGUAGAUCAUCUAAUGCAAAAUUGCCCUCAGUUCCAACAGUUGAUUCAGUUUCACAAGAUCCGCAACAGAGGAUUGAGCAUCA
B21: chr2:182777146:182777247:+|3pUTR|ENSG00000077232|msi1|FALSE|unique (ssRNA)
RNA: GGGAGUUCUACAGUCCGACGAUCUGAAGAUGAAGAAAAAGUUUAAAAGAAAUUCUGACAGAUGACAUCAGAAGACACCUAUUUAGAAUGUUACAUUUAUGAUGGGAAUGAAUGAACAUUAUCUUAGACUUGCAGUUGUACUGCCAACAGAGGAUUGAGCAUCA
B22: chr13:113097702:113097803:+|3pUTR|ENSG00000126217|unk|total|mutant (ssRNA)
RNA: GGGAGUUCUACAGUCCGACGAUCAAAGAAAAUACAAAGAUGCAGUUUCUGCAGGGUGUGGCGUGGACCAGUGCUGCCGACCACCGCUCAGAGAGCCCUGCCCCUGCCUCACUGCACUGCAGCCUCCUCGGAGGCCGCACCUCCCAACAGAGGAUUGAGCAUCA

What follows are binders tested against T1, UNK ZnF1-6 (called full-length) (assay: nsRBNS (natural sequence RNA bind-n-seq); RBNS binding buffer (assumed for nsRBNS): 25 mM Tris pH 7.5, 150 mM KCl, 3 mM MgCl2, 0.01% Triton X-100, 500 ug/ml BSA, 20 U/ml SUPERase-In, 4 C; UNK is unkempt and MSI1 is Musashi-1; names of the RNAs are library labels; protein concentration not given here; high values mean tight binding).

Row | Binder | binding signal
1 | B1 | 0.561 enrichment R
2 | B2 | 0.503 enrichment R
3 | B3 | 0.29 enrichment R
4 | B4 | 0.828 enrichment R
5 | B5 | 0.515 enrichment R
6 | B6 | 0.443 enrichment R
7 | B7 | 1.01 enrichment R
8 | B8 | 1.02 enrichment R
9 | B9 | 0.65 enrichment R
10 | B10 | 0.473 enrichment R
11 | B11 | 0.608 enrichment R
12 | B12 | 0.673 enrichment R
13 | B13 | 0.958 enrichment R
14 | B14 | 0.537 enrichment R
15 | B15 | 1.02 enrichment R
16 | B16 | 0.632 enrichment R
17 | B17 | 0.716 enrichment R
18 | B18 | 0.868 enrichment R
19 | B19 | 0.826 enrichment R
20 | B20 | 0.672 enrichment R
21 | B21 | 0.865 enrichment R
22 | B22 | 0.629 enrichment R
